In all, about 33,000 sequences were measured (“E-score (-0.5 to 0.5)”: median about -0.016, highest 2% from about 0.31 on). The list shows a part of the results.
target: Cst6 (UniProt P40535); assay: PBM E-score (8-mer binding enrichment) (E-score (-0.5 to 0.5)); higher = stronger / more preferred TF binding; most listed sequences are background and not binding sites; settings: protein concentration: 200 nM; construct: GST-DNA-binding domain
Protocol: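 Universal 'all 10-mer' protein binding microarrays (Agilent AMADID 015681) probed with GST-tagged S. cerevisiae TFs (full-length or DBD) made by in vitro transcription/translation (PURExpress), about 100-200 nM. Bound TF was detected with fluorescent anti-GST. Each ungapped 8-mer (which stands for itself and its reverse complement) is scored by the PBM enrichment score (E-score), a modified Wilcoxon-Mann-Whitney statistic from -0.5 to +0.5, computed with the Universal PBM Analysis Suite. Scale: above 0.35 generally sequence-specific binding.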

| Sequence | PBM E-score |
| --- | --- |
| GACATTAA | 0.146 |
| CCCCACGA | -0.209 |
| CATGAGGA | 0.0552 |
| AGCTCCTC | -0.0933 |
| CCGTGCCC | -0.075 |
| AAACGAGT | -0.0501 |
| AACGATGC | -0.035 |
| AGTTTCAA | -0.118 |
| CTCAATGC | -0.0257 |
| ATGTTGAA | 0.104 |
| ACATTCAG | -0.219 |
| AGCCAGTA | -0.281 |
| AAATAAAA | 0.186 |
| TAGATATA | 0.106 |
| GAGGAATC | -0.167 |
| AATACAAC | 0.164 |
| AATAACCA | 0.226 |
| CTTACCAC | -0.141 |
| ATGATTAC | 0.253 |
| ATATAAAC | 0.295 |
| CGCACGGC | 0.375 |
| AGTCGGCC | -0.198 |
| GGGTTTAA | -0.0748 |
| GTTGCGAA | 0.119 |
| TCGGGCAA | -0.192 |

| Sequence | PBM E-score |
| --- | --- |
| AGACAGCG | -0.143 |
| GTCGGTAA | -0.045 |
| CCCTCCCA | -0.0423 |
| AACAAGTA | -0.0246 |
| AACCTCTG | -0.136 |
| TGGCGCCA | 0.034 |
| ACTGGGTC | -0.286 |
| GGAAAGAA | 0.116 |
| ATGGTATA | 0.122 |
| TGCGCCAA | -0.0304 |
| CGGGGTCA | -0.164 |
| CCTGGGAC | -0.245 |
| AATTTACA | 0.229 |
| AGTATACG | 0.0757 |
| CCCCTTAC | -0.14 |
| CAATAGCA | -0.216 |
| ACTACGCC | -0.0733 |
| ATAACATC | 0.282 |
| GCTTACGA | 0.0634 |
| CGTCTCAA | 0.13 |
| AAAGAAAA | 0.16 |
| GTAATAGA | 0.0316 |
| ATTCTAAC | 0.0623 |
| GTAAACAA | 0.28 |
| CGCCATCC | 0.0971 |

| Sequence | PBM E-score |
| --- | --- |
| ATGGGAAA | -0.125 |
| CACTCCAA | -0.0548 |
| CAAAAGTC | -0.0785 |
| ATAGCTCC | -0.0824 |
| GCTATACA | 0.0758 |
| ACCATAGT | -0.116 |
| GTGTCTTA | 0.122 |
| AGTACGCG | 0.105 |
| GACTCGGC | -0.177 |
| GCGTAATA | 0.296 |
| TATCCCCA | -0.123 |
| GAATAGTC | -0.111 |
| GTTCAATA | 0.00065 |
| AAGATCCA | -0.0616 |
| CTTTCTTA | 0.208 |
| CTTCCGGA | -0.25 |
| GACATTCC | -0.128 |
| AGGCGCTA | 0.0918 |
| CCGCCCAC | -0.0152 |
| CACTCATG | -0.017 |
| ACGCACAG | 0.101 |
| CTTGCACC | -0.0331 |
| CAAAACAA | 0.11 |
| AGTTCATC | 0.05 |
| AAGGATGT | -0.141 |

| Sequence | PBM E-score |
| --- | --- |
| GGCGGGTA | -0.17 |
| CACCGTTA | 0.162 |
| AGGCTAAA | -0.0332 |
| CCGGCAAG | -0.104 |
| GTCTATGA | 0.26 |
| AAATATTG | 0.286 |
| AAGGATCC | -0.197 |
| AATGATTA | 0.344 |
| GGCGACAC | -0.0377 |
| CGTCTCGA | 0.143 |
| CGAACAGA | 0.00596 |
| ACCGACAT | 0.111 |
| GTCGCGAA | -0.104 |
| ACCAAACC | 0.0174 |
| TATCCGAA | 0.0414 |
| CCGGGTTC | -0.142 |
| GAGAGCCA | -0.0157 |
| CCAGGCTC | -0.28 |
| GCCAGGTA | -0.139 |
| AAGATCAC | 0.145 |
| AACGTTAC | 0.137 |
| AACTATAC | -0.0149 |
| GCGATGCA | -0.255 |
| GAAGATCA | 0.0438 |
| GGGTGACC | -0.0338 |

| Sequence | PBM E-score |
| --- | --- |
| CCTGGGAG | -0.26 |
| AAGGGCTA | -0.169 |
| CGAGGATC | -0.0581 |
| TCAGACAA | 0.0498 |
| CAGATAAA | 0.051 |
| GGGCGATA | -0.23 |
| GTGCCCCA | -0.141 |
| AATTTCTA | 0.198 |
| AAACCCGG | -0.209 |
| ATTGGATG | 0.193 |
| AGGTCTTC | -0.231 |
| GATCTTTA | 0.227 |
| GACCACCA | -0.112 |
| AATGGAGT | -0.0477 |
| ACCTAGCT | -0.227 |
| AAAATCAT | 0.254 |
| ATGTCCTG | -0.00863 |
| CGTGTACC | -0.0152 |
| CACATACG | 0.0445 |
| CAGTTGGC | -0.175 |
| ACGCGATA | 0.0231 |
| GGCCATTA | -0.0134 |
| ATTCTGGA | 0.122 |
| CGAGGAAC | -0.0452 |
| AGAAATGC | 0.0927 |

| Sequence | PBM E-score |
| --- | --- |
| ACTATTAA | 0.237 |
| AAGCAGCA | -0.247 |
| ATTAGTCA | 0.201 |
| AATATCGG | 0.0281 |
| GTTGCCAA | -0.101 |
| CGGTCTGA | -0.128 |
| AATCGCAG | 0.0466 |
| ACTATACT | 0.0328 |
| TTCCCCAA | -0.12 |
| CAAGTTAA | 0.153 |
| GCCATTTA | 0.022 |
| CAGCATCA | 0.0951 |
| TATTTTGA | 0.0413 |
| CAAAGGCA | 0.0899 |
| TCGTCCAA | 0.023 |
| ATGGGAAT | -0.107 |
| GCATGCCA | -0.0954 |
| CTGTTCAA | -0.0331 |
| CACGCTTC | -0.182 |
| CCCATTTC | -0.177 |
| GTGCGCTA | -0.19 |
| AAATAGCT | -0.00989 |
| AAACGACT | -0.0754 |
| CTATCATA | 0.14 |
| ATCTCTAG | -0.0621 |

| Sequence | PBM E-score |
| --- | --- |
| ATACTTTA | 0.172 |
| CCGTCCCC | -0.289 |
| CTGCATAC | 0.00598 |
| TAGACAAA | 0.106 |
| AATGTTCG | -0.0247 |
| CCAGGCCA | -0.293 |
| AACTCAAT | 0.0395 |
| AACAATGG | 0.0543 |
| GCGAATAC | 0.043 |
| CGGTACCC | -0.273 |
| AACTGGCA | -0.0203 |
| CCGCATGC | 0.0138 |
| CCCAGCAG | -0.203 |
| CGTGTTAG | 0.138 |
| GCATGTTA | 0.0834 |
| GAAAGGTC | -0.196 |
| ACTTGACG | 0.237 |
| ACCCTCTG | -0.156 |
| CTTTGCGA | -0.0378 |
| AAGGCCTA | -0.211 |
| GAGAGGCC | -0.385 |
| AATTGTGT | 0.0931 |

Reference: the supplement of paper PMC3334620
